The values that follow come from paper PMC11960969, “Mdga2 deficiency leads to an aberrant activation of BDNF/TrkB signaling that underlies autism-relevant synaptic and behavioral changes in mice” (PLOS Biology, 2025).

The chains behind the UniProt entries cited, without tags or fusion partners. Residues count along the entry.
UniProt Q16620, residues 32-822: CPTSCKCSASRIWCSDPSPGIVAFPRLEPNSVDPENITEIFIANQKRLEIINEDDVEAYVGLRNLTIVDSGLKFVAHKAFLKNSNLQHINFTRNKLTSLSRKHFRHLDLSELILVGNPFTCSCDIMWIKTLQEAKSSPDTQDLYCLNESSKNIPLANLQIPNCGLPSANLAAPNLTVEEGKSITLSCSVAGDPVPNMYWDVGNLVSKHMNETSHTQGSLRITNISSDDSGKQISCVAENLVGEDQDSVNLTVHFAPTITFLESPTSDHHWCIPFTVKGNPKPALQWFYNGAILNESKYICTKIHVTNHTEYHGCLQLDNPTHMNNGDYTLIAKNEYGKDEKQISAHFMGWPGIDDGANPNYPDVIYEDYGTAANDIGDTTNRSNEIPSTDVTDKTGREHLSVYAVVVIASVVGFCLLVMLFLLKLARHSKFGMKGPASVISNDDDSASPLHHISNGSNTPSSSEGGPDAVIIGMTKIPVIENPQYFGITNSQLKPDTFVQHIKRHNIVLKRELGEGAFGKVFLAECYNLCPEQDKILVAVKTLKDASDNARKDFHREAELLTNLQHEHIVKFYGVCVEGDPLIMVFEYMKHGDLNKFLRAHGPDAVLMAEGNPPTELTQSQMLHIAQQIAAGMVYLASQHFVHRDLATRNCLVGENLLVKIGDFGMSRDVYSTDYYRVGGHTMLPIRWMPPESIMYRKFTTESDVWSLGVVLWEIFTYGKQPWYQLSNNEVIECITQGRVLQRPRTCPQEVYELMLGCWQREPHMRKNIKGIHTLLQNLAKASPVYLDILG
UniProt P15209, residues 32-821: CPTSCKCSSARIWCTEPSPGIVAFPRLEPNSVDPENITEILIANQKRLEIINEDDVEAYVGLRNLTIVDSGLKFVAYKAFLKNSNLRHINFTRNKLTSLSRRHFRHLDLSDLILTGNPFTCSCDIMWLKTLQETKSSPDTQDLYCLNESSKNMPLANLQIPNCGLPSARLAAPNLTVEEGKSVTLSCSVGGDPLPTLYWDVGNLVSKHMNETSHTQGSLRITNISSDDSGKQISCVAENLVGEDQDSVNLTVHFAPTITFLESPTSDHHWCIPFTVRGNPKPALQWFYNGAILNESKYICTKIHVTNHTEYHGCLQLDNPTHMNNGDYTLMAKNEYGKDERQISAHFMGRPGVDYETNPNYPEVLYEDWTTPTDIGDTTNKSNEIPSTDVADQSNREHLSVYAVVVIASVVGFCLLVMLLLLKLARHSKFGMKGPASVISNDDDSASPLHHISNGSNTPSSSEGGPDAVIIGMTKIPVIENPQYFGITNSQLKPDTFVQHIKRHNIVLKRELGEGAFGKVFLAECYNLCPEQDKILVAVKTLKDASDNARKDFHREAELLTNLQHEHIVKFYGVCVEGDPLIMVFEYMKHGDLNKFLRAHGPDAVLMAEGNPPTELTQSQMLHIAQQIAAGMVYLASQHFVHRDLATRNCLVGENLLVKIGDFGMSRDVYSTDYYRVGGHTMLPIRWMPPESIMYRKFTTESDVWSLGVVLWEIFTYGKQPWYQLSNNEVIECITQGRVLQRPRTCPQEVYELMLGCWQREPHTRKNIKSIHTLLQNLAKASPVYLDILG

No constants are given. Whether binding was seen depends on the method and setting. Binding seen in cells or lysates may run through a third protein. Some binding calls cover weakened binding; strength is not graded here. For part of these data: Where a sequence is shown, tags or fusion partners need not be part of it.

Test [1] deals with Flag-tagged full-length human TrkB (TrkB-Flag) (human) (UniProt Q16620). The experiment in a line: co-IP; HEK293T cells co-transfected with Flag-tagged TrkB constructs and GFP-tagged MDGA2 constructs; lysates IP with control IgG, anti-Flag or anti-GFP, immunoblot. (In general: A western blot detects proteins with antibodies after separation by electrophoresis.)
Test [2] addresses TrkB (tyrosine kinase B receptor), endogenous mouse (mouse (endogenous in mouse brain)) (UniProt P15209). The test can be described thus: co-IP; mouse brain lysates (WT; Het and WT littermates for BDNF), IP with an anti-TrkB antibody or control IgG, immunoblot.
Test [3] addresses Flag-tagged full-length human TrkB (TrkB-Flag) (human) (UniProt Q16620). The test can be described thus: co-IP; mouse primary neurons transfected with GFP-tagged MDGA2, V930I or ΔMAM (text: co-transfected with TrkB); lysates IP with GFP or an anti-TrkB antibody, immunoblot.

B1: GFP-tagged MDGA2 lacking the C-terminal region (aa 834-921) of the MAM domain (MDGA2-ΔM2) (domain or fragment, UniProt Q7Z553)
chain: PPTVRIVHSGLACNIEEERYSERVYTIREGETLELTCLVTGHPRPQIRWTKTAGSASDRFQDSSVFNETLRITNIQRHQGGRYYCKAENGLGSPAIKSIRVDVYYLDDPVVTVHQSIGEAKEQFYYERTVFLRCVANSNPPVRYSWRRGQEVLLQGSDKGVEIYEPFFTQGETKILKLKNLRPQDYANYSCIASVRNVCNIPDKMVSFRLSNKTASPSIKLLVDDPIVVNPGEAITLVCVTTGGEPAPSLTWVRSFGTLPEKTVLNGGTLTIPAITSDDAGTYSCIANNNVGNPAKKSTNIIVRALKKGRFWITPDPYHKDDNIQIGREVKISCQVEAVPSEELTFSWFKNGRPLRSSERMVITQTDPDVSPGTTNLDIIDLKFTDFGTYTCVASLKGGGISDISIDVNISSSTVPPNLTVPQEKSPLVTREGDTIELQCQVTGKPKPIILWSRADKEVAMPDGSMQMESYDGTLRIVNVSREMSGMYRCQTSQYNGFNVKPREALVQLIVQYPPAVEPAFLEIRQGQDRSVTMSCRVLRAYPIRVLTYEWRLGNKLLRTGQFDSQEYTEYAVKSLSNENYGVYNCSIINEAGAGRCSFLVTGKAYAPEFYYDTYNPVWQNRHRVYSYSLQWTQMNPDAVDRIVAYRLGIRQAGQQRWWEQEIKINGNIQKGELITYNLTELIKPEAYEVRLTPLTKFGEGDSTIRVIKYSAPVNPHLREFHCGFEDGNICLFTQDDTDNFDWTKQSTATRNTKYTPNTGPNADRSGSKEGFYMYIETSRPRLEGEKARLLSPVFSIAPKNPYGPTNTQDLATKNSVD
For the molecule B1, the binding result in test [1] is given as “binds”.

B2: GFP-tagged MDGA2 lacking the entire MAM domain (MDGA2-ΔMAM-GFP) (domain or fragment, UniProt Q7Z553)
chain: PPTVRIVHSGLACNIEEERYSERVYTIREGETLELTCLVTGHPRPQIRWTKTAGSASDRFQDSSVFNETLRITNIQRHQGGRYYCKAENGLGSPAIKSIRVDVYYLDDPVVTVHQSIGEAKEQFYYERTVFLRCVANSNPPVRYSWRRGQEVLLQGSDKGVEIYEPFFTQGETKILKLKNLRPQDYANYSCIASVRNVCNIPDKMVSFRLSNKTASPSIKLLVDDPIVVNPGEAITLVCVTTGGEPAPSLTWVRSFGTLPEKTVLNGGTLTIPAITSDDAGTYSCIANNNVGNPAKKSTNIIVRALKKGRFWITPDPYHKDDNIQIGREVKISCQVEAVPSEELTFSWFKNGRPLRSSERMVITQTDPDVSPGTTNLDIIDLKFTDFGTYTCVASLKGGGISDISIDVNISSSTVPPNLTVPQEKSPLVTREGDTIELQCQVTGKPKPIILWSRADKEVAMPDGSMQMESYDGTLRIVNVSREMSGMYRCQTSQYNGFNVKPREALVQLIVQYPPAVEPAFLEIRQGQDRSVTMSCRVLRAYPIRVLTYEWRLGNKLLRTGQFDSQEYTEYAVKSLSNENYGVYNCSIINEAGAGRCSFLVTGKAYAPEFYYDTYNPVWQNRHRVYSYSLQWTQMNPDAVDRIVAYRLGIRQAGQQRWWEQEIKINGNIQKGELITYNLTELIKPEAYEVRLTPLTKFGEGDSTIRVIKYSAPVNPHLREQDLATKNSVD
In the case of B2, the binding result in test [1] is given as “no binding”.

B3: GFP-tagged MDGA2 lacking the N-terminal region (aa 746-833) of the MAM domain (MDGA2-ΔM1) (domain or fragment, UniProt Q7Z553)
chain: PPTVRIVHSGLACNIEEERYSERVYTIREGETLELTCLVTGHPRPQIRWTKTAGSASDRFQDSSVFNETLRITNIQRHQGGRYYCKAENGLGSPAIKSIRVDVYYLDDPVVTVHQSIGEAKEQFYYERTVFLRCVANSNPPVRYSWRRGQEVLLQGSDKGVEIYEPFFTQGETKILKLKNLRPQDYANYSCIASVRNVCNIPDKMVSFRLSNKTASPSIKLLVDDPIVVNPGEAITLVCVTTGGEPAPSLTWVRSFGTLPEKTVLNGGTLTIPAITSDDAGTYSCIANNNVGNPAKKSTNIIVRALKKGRFWITPDPYHKDDNIQIGREVKISCQVEAVPSEELTFSWFKNGRPLRSSERMVITQTDPDVSPGTTNLDIIDLKFTDFGTYTCVASLKGGGISDISIDVNISSSTVPPNLTVPQEKSPLVTREGDTIELQCQVTGKPKPIILWSRADKEVAMPDGSMQMESYDGTLRIVNVSREMSGMYRCQTSQYNGFNVKPREALVQLIVQYPPAVEPAFLEIRQGQDRSVTMSCRVLRAYPIRVLTYEWRLGNKLLRTGQFDSQEYTEYAVKSLSNENYGVYNCSIINEAGAGRCSFLVTGKAYAPEFYYDTYNPVWQNRHRVYSYSLQWTQMNPDAVDRIVAYRLGIRQAGQQRWWEQEIKINGNIQKGELITYNLTELIKPEAYEVRLTPLTKFGEGDSTIRVIKYSAPVNPHLREAYCFSFFYHMYGQHIGVLNVYLRLKGQTTIENPLWSSSGNKGQRWNEAHVNIYPITSFQLIFEGIRGPGIEGDIAIDDVSIAEGECAKQDLATKNSVD
Turning to B3, in test [1], the binding entry is reported as “no binding”.

B4: MDGA1, endogenous mouse (protein, UniProt Q0PMG2 19-933)
chain: QGVYAPAQAQIVHAGQACVVKEDNISERVYTIRESDTLVLQCLVTGHPRPQVRWTKTAGSASDKFQETSVFNETLRIERIARTQGGRYYCKAENGVGVPAIKSIRVDVQYLDEPVLTVHQTVSDVRGNFYQEKTVFLRCTVSSNPPARFIWKRGSDTLSHSQDNGVDIYEPLYTQGETKVLKLKNLRPQDYASYTCQVSVRNVCGIPDKAITFQLTNTTAPPALKLSVNETLVVNPGENVTVQCLLTGGDPLPQLHWSHGPGPLPLGALAQGGTLSIPSVQARDSGYYNCTATNNVGNPAKKTVNLLVRSLKNATFQITPDMIKESENIQLGQDLKLSCHVDAVPQEKVNYQWFKNGKPARTSKRLLVTRNDPELPAVTSSLELIDLHFSDYGTYLCMASFPGSPVPDLSIEVNISSETVPPTISVPKGRAVVTVREGSPAELQCEVRGKPRPPVLWSRVDKEAALLPSGLALEETPDGKLRLESVSRDMSGTYRCQTARYNGFNVRPREAQVQLTVHFPPEVEPSSQDVRQALGRPVLLRCSLLRGSPQRIASAVWRFKGQLLPPPPVLPAAAVETPDHAELRLDALTRDSSGNYECSVSNDVGSATCLFQVSAKAYSPEFYFDTPNPTRSHKLSKNYSYVLQWTQREPDAVDPVLNYRLSIRQLNQHNAMVKAIPVRRVEKGQLLEYILTDLRVPHSYEIRLTPYTTFGAGDMASRIIHYTEPINLPSLSDNTCHFEDEKICGYTQDLTDNFDWTRQNALTQNPKRSPNTGPPTDISGTPEGYYMFIETSRPRELGDRARLVSPLYNASAKFYCVSFFYHMYGKHIGSLNLLVRSRNKGTLDTHAWSLSGNKGNVWQQAHVPINPSGPFQIIFEGVRGSGYLGDIAIDDVTLKKGECPRRQMDPNKVVVMPGS
B4: the binding entry in test [2] is “no binding”.

B5: MDGA2 (MAM domain containing glycosylphosphatidylinositol anchor 2), endogenous mouse (protein, UniProt P60755 26-924)
chain: PPTVRIVHSGLACNIEEERYSERVYTIREGETLELTCLVTGHPRPQIRWTKTAGSASDRFQDSSVFNETLRITNIQRHQGGRYYCKAENGLGSPAIKSIRVDVYYLDDPVVTVHQSIGEAKEQFYYERTVFLRCVANSNPPVRYSWRRGQEVLLQGSDKGVEIYEPFFTQGETKILKLKNLRPQDYANYSCIASVRNVCNIPDKMVSFRLSNKTASPSIKLLVDDPIVVNPGEAITLVCVTTGGEPTPSLTWVRSFGTLPEKIVLNGGTLTIPAITSDDAGTYSCIANNNVGNPAKKSTNIIVRALKKGRFWITPDPYHKDDNIQIGREVKISCQVEAVPSEELTFSWFKNGRPLRSSERMVITQTDPDVSPGTTNLDIIDLKFTDFGTYTCVASLKGGGISDISIDVNISSSTVPPNLTVPQEKSPLVTREGDTIELQCQVTGKPKPIILWSRADKEVAMPDGTMQMESYDGTLRIVNVSREMSGMYRCQTSQYNGFNVKPREALVQLIVQYPPAVEPAFLEIRQGQDRSVTMSCRVLRAYPIRVLTYEWRLGNKLLRTGQFDSQEYTEYPLKSLSNENYGVYNCSIINEAGAGRCSFLVTGKAYAPEFYYDTYNPVWQNRHRVYSYSLQWTQMNPDAVDRIVAYRLGIRQAGQQRWWEQEIKINGNIQKGELITYNLTELIKPEAYEVRLTPLTKFGEGDSTIRVIKYTGEFHCGFEDGNICLFTQDDTDNFDWTKQSTATRNTKYTPNTGPSADRSGSKEGFYMYIETSRPRLEGEKARLLSPVFSIAPKNPYGPTNSAYCFSFFYHMYGQHIGVLNVYLRLKGQTTIENPLWSSSGNKGQRWNEAHVNIYPITSFQLIFEGIRGPGIEGDIAIDDVSIAEGECAKQDLPTKNSVD
In the case of B5, the binding result in test [2] is reported as “binds”.

B6: GFP-tagged human MDGA2 with the ASD-associated V930I mutation (MDGA2-V930I) (protein, UniProt Q7Z553 26-931)
chain: PPTVRIVHSGLACNIEEERYSERVYTIREGETLELTCLVTGHPRPQIRWTKTAGSASDRFQDSSVFNETLRITNIQRHQGGRYYCKAENGLGSPAIKSIRVDVYYLDDPVVTVHQSIGEAKEQFYYERTVFLRCVANSNPPVRYSWRRGQEVLLQGSDKGVEIYEPFFTQGETKILKLKNLRPQDYANYSCIASVRNVCNIPDKMVSFRLSNKTASPSIKLLVDDPIVVNPGEAITLVCVTTGGEPAPSLTWVRSFGTLPEKTVLNGGTLTIPAITSDDAGTYSCIANNNVGNPAKKSTNIIVRALKKGRFWITPDPYHKDDNIQIGREVKISCQVEAVPSEELTFSWFKNGRPLRSSERMVITQTDPDVSPGTTNLDIIDLKFTDFGTYTCVASLKGGGISDISIDVNISSSTVPPNLTVPQEKSPLVTREGDTIELQCQVTGKPKPIILWSRADKEVAMPDGSMQMESYDGTLRIVNVSREMSGMYRCQTSQYNGFNVKPREALVQLIVQYPPAVEPAFLEIRQGQDRSVTMSCRVLRAYPIRVLTYEWRLGNKLLRTGQFDSQEYTEYAVKSLSNENYGVYNCSIINEAGAGRCSFLVTGKAYAPEFYYDTYNPVWQNRHRVYSYSLQWTQMNPDAVDRIVAYRLGIRQAGQQRWWEQEIKINGNIQKGELITYNLTELIKPEAYEVRLTPLTKFGEGDSTIRVIKYSAPVNPHLREFHCGFEDGNICLFTQDDTDNFDWTKQSTATRNTKYTPNTGPNADRSGSKEGFYMYIETSRPRLEGEKARLLSPVFSIAPKNPYGPTNTAYCFSFFYHMYGQHIGVLNVYLRLKGQTTIENPLWSSSGNKGQRWNEAHVNIYPITSFQLIFEGIRGPGIEGDIAIDDVSIAEGECAKQDLATKNSID
As for B6, in test [3], the binding entry is given as “binds”.
